Each structure is given as a SMILES string. Screen size: about 310,000 compounds; about 14,000 (4.5%) showed an effect of 50% or more. The effect is printed as a negative number. This is one part of the list.
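Note: peak tail current of the secondary pulse compared with the same well before compound.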

The target in the test is human ether-à-go-go-related gene (hERG) potassium channel (human, UniProt Q12809). The experiment in a line: primary screen, population patch clamp on CHO cells stably expressing hERG.
Chain of human ether-à-go-go-related gene (hERG) potassium channel (Q12809 whole entry, looked up): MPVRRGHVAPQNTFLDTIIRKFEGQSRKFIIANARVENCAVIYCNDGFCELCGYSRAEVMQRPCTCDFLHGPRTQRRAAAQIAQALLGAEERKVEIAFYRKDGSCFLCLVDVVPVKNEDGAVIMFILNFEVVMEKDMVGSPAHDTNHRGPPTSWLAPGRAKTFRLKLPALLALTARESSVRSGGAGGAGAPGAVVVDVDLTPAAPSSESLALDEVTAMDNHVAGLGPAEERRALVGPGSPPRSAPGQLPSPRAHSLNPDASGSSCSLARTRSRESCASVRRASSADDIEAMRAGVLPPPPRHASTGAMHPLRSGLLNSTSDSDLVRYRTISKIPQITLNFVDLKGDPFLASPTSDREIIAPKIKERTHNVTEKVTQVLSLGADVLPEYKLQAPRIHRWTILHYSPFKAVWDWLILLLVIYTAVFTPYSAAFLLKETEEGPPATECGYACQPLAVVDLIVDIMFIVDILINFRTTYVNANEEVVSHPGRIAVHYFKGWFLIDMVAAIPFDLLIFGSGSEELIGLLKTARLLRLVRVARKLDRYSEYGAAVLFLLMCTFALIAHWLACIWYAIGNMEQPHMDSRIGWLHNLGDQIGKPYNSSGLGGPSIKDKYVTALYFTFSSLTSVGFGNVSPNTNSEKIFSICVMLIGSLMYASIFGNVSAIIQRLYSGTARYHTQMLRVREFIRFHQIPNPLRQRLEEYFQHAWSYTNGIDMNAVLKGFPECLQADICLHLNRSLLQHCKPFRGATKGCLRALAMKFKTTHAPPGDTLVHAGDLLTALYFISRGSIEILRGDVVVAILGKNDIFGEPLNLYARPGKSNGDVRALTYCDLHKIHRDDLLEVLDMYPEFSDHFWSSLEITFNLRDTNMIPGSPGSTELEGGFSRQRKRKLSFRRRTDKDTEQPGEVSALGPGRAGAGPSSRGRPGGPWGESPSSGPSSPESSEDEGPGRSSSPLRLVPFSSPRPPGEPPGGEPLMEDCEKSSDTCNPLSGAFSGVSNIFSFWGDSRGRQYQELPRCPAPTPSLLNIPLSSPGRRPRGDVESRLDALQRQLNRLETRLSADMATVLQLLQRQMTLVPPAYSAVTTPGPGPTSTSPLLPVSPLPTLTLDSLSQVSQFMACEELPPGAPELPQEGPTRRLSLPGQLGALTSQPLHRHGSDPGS
On to `CCOC(=O)c1ccc(Nc2nc(C)cc(C)c2C#N)cc1`, for which the “hERG current change (%, negative = inhibition) at 10uM” value was determined as 5.18%.

In the case of `CCOc1nc(Nc2cc(Cl)ccc2OC)nc(OCC)n1`, the “hERG current change (%, negative = inhibition) at 10uM” value turned out to be 19.7%. The figure for `O=c1cc(-c2ccc(O)cc2)oc2c1ccc1ccccc12` is -3.85%. The figure for `Cc1ccccc1OC(=O)C1C(c2ccccc2)C(C(=O)O)C1c1ccccc1` (centres unmarked) is -7.68%.

As to `CN1N=C(C(C)(C)C)CSC1=Nc1ccc(F)cc1`, the “hERG current change (%, negative = inhibition) at 10uM” value was -6.7%. `CCOC(=O)Nc1ccc(S(=O)(=O)Nc2cc(C)on2)cc1`: the “hERG current change (%, negative = inhibition) at 10uM” value is 6.84%. The figure for `Fc1ccc(-c2cc(C(F)(F)F)nc(-n3cncn3)n2)cc1` is -22.1%; for `CCOC(=O)N1CCN(C(=O)COc2cc(C)c(Cl)c(C)c2)CC1` it is 2.21%; for `CCC(=O)N1CCCn2c1nc1ccccc12` it is 5.2%.

On to `CC(C)=Nc1ccccc1C1COC(=O)C1=N` (centres unmarked), for which the “hERG current change (%, negative = inhibition) at 10uM” value is recorded as 0.455%. The same measure for `Cc1cccc(NC(=O)Nc2nnc(-c3ccccc3)o2)c1`: 7.63%; for `COc1cccc(-n2c(=O)c3cc(OC)c(OC)cc3n(CC(=O)Nc3cc(C)[nH]n3)c2=O)c1`: 8.21%. The figure for `Cc1ccc(S(=O)(=O)N2CCN(C(=O)CCn3cncn3)CC2)cc1C` is 10.2%.

For the molecule `CCCCC(CCC(=O)Nc1ccc(C(=O)OC)cc1)C(=O)O` (centres unmarked), the “hERG current change (%, negative = inhibition) at 10uM” value worked out at 16%.

Regarding `COc1ccc(C(=O)C2CCCN(Cc3ccc(Sc4nncn4C)o3)C2)cc1F` (centres unmarked), the “hERG current change (%, negative = inhibition) at 10uM” value is reported as -15.4%. The same measure for `CC(=O)Nc1ccc(NC(=O)Nc2cccc(C)c2C)cc1`: 32.5%; for `COc1cccc(NC(=O)CCC2CCN(C(=O)c3scnc3C)CC2)c1`: -6.41%. The figure for `Cc1ccnc2nc(C(=O)OCC(=O)NC3CCCC(C)C3C)nn12` (centres unmarked) is -10.4%. The same measure for `CCCn1c(C(=O)c2ccccc2OC)nc2ccccc21`: -47%; for `CN(CCO)c1nc(NCc2ccccc2)c2cnn(C)c2n1`: 9.03%. On to `COc1ccc(N2CCN(CCCNC(=O)c3ccc(CS(=O)(=O)c4ccc(OC)cc4)o3)CC2)cc1`, for which the “hERG current change (%, negative = inhibition) at 10uM” value was -68.9%.

For the molecule `COc1cccc(/C=C(/CC(=O)Nc2ccc(N3CCOCC3)cc2)c2nc3ccccc3s2)c1`, the “hERG current change (%, negative = inhibition) at 10uM” value came out at 11.9%. The same measure for `COc1cc(C(=O)NNC2=NC(C)(C)Cc3cc(C)c(C)cc32)cc(OC)c1OC`: 14.7%; for `Cc1nn(Cc2ccccc2)c(C)c1C(=O)NCC(c1cccs1)N1CCOCC1` (centres unmarked): 7.45%; for `Cc1noc(C)c1COc1cccc(C(=O)N2CCc3ccccc32)c1`: -26.4%. The same measure for `COc1ccccc1CNC(=O)C(C)NS(=O)(=O)c1ccccc1` (centres unmarked): 9.35%; for `Cc1ccccc1-c1nc(CS(=O)(=O)CC(=O)N2CCCCC2)c(C)o1`: -8.14%; for `CSCCCN1CC[C@@H](N2CCN(c3ccccc3F)CC2)[C@H](O)C1`: -36.8%. For `O=C(NC1CCCC1)C(c1ccccn1)N(C(=O)c1csnn1)c1ccccc1Cl` (centres unmarked), the “hERG current change (%, negative = inhibition) at 10uM” value is given as 0.89%. The same measure for `Cc1ccc(C)c(N/C(N)=N/c2nc(C)cc(C)n2)c1`: -34.2%; for `CC(C)C(=O)NC(c1cccc([N+](=O)[O-])c1)c1ccc2cccnc2c1O` (centres unmarked): 7.56%; for `O=C(COc1ccccc1)Nc1nnc(-c2ccccc2)o1`: -5.87%. The figure for `Cn1nc(-c2ccc(N3CCCCC3)c(NC(=O)c3ccco3)c2)c2ccccc2c1=O` is 9.65%. The same measure for `Cc1ccccc1CN(c1ccc(C(=O)Nc2ccccc2C(=O)NCc2ccco2)cc1)S(C)(=O)=O`: -7.85%. On to `O=C(COC(=O)c1ccc(F)c(S(=O)(=O)N2CCCCC2)c1)NCc1ccc(F)cc1`, for which the “hERG current change (%, negative = inhibition) at 10uM” value is -28.9%.

Turning to `O=C(Nc1ccncc1)Nc1ccccn1`, the “hERG current change (%, negative = inhibition) at 10uM” value worked out at 4.5%. With `CCOc1ccc(-n2c(=S)sc3c(=O)[nH]c(SCC(=O)N4CCC(C)CC4)nc32)cc1`, the “hERG current change (%, negative = inhibition) at 10uM” value is 19.9%. The figure for `CCCCC1(C(=O)OCC)NC(c2ccc(O)cc2)C2C(=O)N(c3ccccc3)C(=O)C21` (centres unmarked) is -3.73%; for `COC(=O)c1c(NC(=O)c2nc3ccccc3s2)sc2c1CCN(C(C)=O)C2` it is 11.6%; for `CCN1CCN(C(=O)C2CCN(C(=O)Nc3ccccc3)CC2)CC1` it is -4.16%. Regarding `COc1ccccc1-c1c(C(F)(F)F)oc2cc(OS(C)(=O)=O)ccc2c1=O`, the “hERG current change (%, negative = inhibition) at 10uM” value amounted to 4.5%. Consider `O=C1CC(N(O)c2ccccc2)C(=O)N1Cc1ccccc1` (centres unmarked), for which the “hERG current change (%, negative = inhibition) at 10uM” value is recorded as -2.37%. The figure for `Cc1cc(=O)oc2n[nH]c(-c3ccccc3)c12` is -9.13%. As for `COc1ccc(NC(=O)C2CCN(S(=O)(=O)c3cccc4nonc34)CC2)cc1`, the “hERG current change (%, negative = inhibition) at 10uM” value is on record as 7.34%. The same measure for `COc1ccccc1/C=N/NC(=O)c1c(-c2ccccc2)noc1C`: 7.6%; for `CS(=O)(=O)c1ccc(C(=O)OCC(=O)NC(=O)C2CCCCC2)cc1[N+](=O)[O-]`: 28.1%; for `CCOC(=O)c1sc(NC(=O)CN2CC(C)OC(C)C2)nc1C` (centres unmarked): 5.03%.

For `N#Cc1ccccc1N=C1CCCN1Cc1ccccc1`, the “hERG current change (%, negative = inhibition) at 10uM” value stood at 8.61%. Turning to `COCCCN(C(=O)c1ccc2ccccc2n1)c1c(N)n(Cc2ccccc2)c(=O)[nH]c1=O`, the “hERG current change (%, negative = inhibition) at 10uM” value is 7%. The same measure for `CCc1ccc(N(CC(=O)NCc2ccco2)C(=O)CCC(=O)Nc2ccccn2)cc1`: -1.61%; for `CCC(=O)Nc1ccc(NCc2cccs2)cc1`: 7.52%. The figure for `COc1ccc(-c2cc(C(=O)NCCCN3CCOCC3)no2)cc1` is 1.44%. Regarding `CSCC[C@H](NC(=O)N1CCn2c1nc1ccccc12)C(=O)N1CCCCC1`, the “hERG current change (%, negative = inhibition) at 10uM” value is on record as -11%. The same measure for `CCOC(=O)Cc1csc(NC(=O)c2c(O)c3c(n(CC(C)C)c2=O)CCCC3)n1`: 3.52%; for `Cc1ccc(-n2cc(CN3CCN(C(=O)c4ncn[nH]4)CC3)c(-c3ccc(F)cc3)n2)cc1`: -9.08%. The figure for `CC1CCC(C(C)C)C(=O)/C1=C\c1ccc(NC(=O)CCC(=O)O)cc1` (centres unmarked) is 10.8%. As to `C=CCCC(=O)Nc1ccc(COC(=O)N2CCOCC2)cc1`, the “hERG current change (%, negative = inhibition) at 10uM” value is reported as 2.94%. The figure for `CC(C)C(c1nnnn1C1CCCCC1)N1CCc2ccccc21` (centres unmarked) is 7.61%. The same measure for `Cc1c(Cc2ccccc2)c(=O)oc2cc(O)ccc12`: 4.98%; for `Cl.OC(COc1ccccc1)CN1CCN(Cc2ccc3c(c2)OCO3)CC1` (centres unmarked): -60.5%. The figure for `CCn1c(CNc2ccc(Cl)cc2)nnc1SCc1ccc(Cl)cc1` is -30.7%; for `Cc1ccc(NC(=O)CSc2nc(=O)n(Cc3ccncc3)c3c2CCC3)c(C)c1` it is -26.1%; for `O=C(CN1C(=O)c2ccccc2C1=O)NCc1ccncc1` it is -33.1%. As to `COc1cc(OC)c(OC)cc1CNC(=O)c1cc(=O)[nH]c2ccccc12`, the “hERG current change (%, negative = inhibition) at 10uM” value worked out at 18.4%. The same measure for `COc1cc(/C=N/NC(=O)c2cc(-c3ccc4c(c3)OCO4)n[nH]2)ccc1O`: 6.01%; for `CCCCn1cnc2cc(NCc3cccc(OC)c3O)ccc21`: -51.2%. The figure for `COc1ccc(C2CC(c3ccc(Cl)cc3)=NN2C(=O)c2cccc([N+](=O)[O-])c2)cc1` (centres unmarked) is 14.3%. The figure for `O=C1CCC(CCC(=O)N2CCCC(C(=O)c3cccc(C(F)(F)F)c3)C2)=NN1` (centres unmarked) is -31.4%.

For `O=C(O)c1ccc(SCc2ccccc2)nc1`, the “hERG current change (%, negative = inhibition) at 10uM” value is recorded as -2.56%. The same measure for `COc1ccc(C(=O)Nc2ccc(Cl)c(Cl)c2)c(OC)n1`: 14.1%. The figure for `CC1CCN(C(=O)Cn2c(=O)n(CCc3ccccc3)c(=O)c3ccccc32)CC1` is -15.4%; for `Cc1ccc(S(=O)(=O)N2CCN(C)CC2)cc1` it is 18.1%; for `COC(=O)CCC(NC(=O)c1cc(C)oc1C)C(=O)OC` (centres unmarked) it is 3.86%.

Turning to `Cl.Clc1ccc(C2=NCCN2)cc1`, the “hERG current change (%, negative = inhibition) at 10uM” value was determined as 9.16%. The same measure for `C=CCNC(=O)c1ccc2c3n(nc2c1)-c1ccc(Cl)cc1CO3`: -48.5%. The same measure for `CCCCN(C)CCNC(=O)CSCc1ccc(C)cc1.O=C(O)C(=O)O`: -37.5%; for `Cc1cccc(/C=C(\C#N)C(=O)Nc2ccccn2)c1`: 13.6%.

Turning to `CCC(C)c1ccc(C2C3=C(Nc4nc(N)[nH]c(=O)c42)c2ccccc2C3=O)cc1` (centres unmarked), the “hERG current change (%, negative = inhibition) at 10uM” value came out at 14.1%. The same measure for `CCS(=O)(=O)N1CCCC(C(=O)c2ccc(OC)cc2C)C1` (centres unmarked): 28.9%.

For the molecule `CCOC(=O)N1CCN(c2ncnc3scc(-c4ccc(Cl)cc4)c23)CC1`, the “hERG current change (%, negative = inhibition) at 10uM” value is listed as -2.17%. The figure for `NS(=O)(=O)c1ccc(CNc2ncnc3sccc23)cc1` is 18.4%. The figure for `CC(Oc1ccc2c(c1)oc(=O)c1ccccc12)C(=O)NCCN1CCOCC1` (centres unmarked) is -5.38%. The figure for `Cc1ccc(-n2ncc3c2CCCC3NC(=O)CCn2ccnc2C)cc1C` (centres unmarked) is 11.1%; for `N#C/C(=C\c1cccc(Cl)c1)C(=O)c1ccccc1` it is 15.4%. As for `O=C(CSc1nc2ccccc2[nH]1)N/N=C/c1ccco1`, the “hERG current change (%, negative = inhibition) at 10uM” value is on record as -4.53%. The figure for `Cn1c(=O)c2c(nc(N/N=C/c3cccs3)n2C)n(C)c1=O` is -4.69%. The figure for `CCOc1ccccc1C(=O)NCC(=O)NCCCSc1ccccc1` is 25.8%. The figure for `CC1(C(=O)NC23CC4CC(CC(C4)C2)C3)CC1(Cl)Cl` (centres unmarked) is -3.58%.

In the case of `COc1cccc2c(N/N=C/c3ccco3)cc(C)nc12`, the “hERG current change (%, negative = inhibition) at 10uM” value is listed as -5.81%.

The values above are taken from PMC4336329 (PLoS ONE, 2015).
